ChEMBL document CHEMBL1157539, “Thousands of chemical starting points for antimalarial lead identification” (Nature, 2010)
The full ranking holds about 13,000 compounds; the median of “IFI” is about 4, and the highest 2% start at about 17. The list shows a part of the results.

test: GSK_TCMDC: Inhibition Frequency Index (IFI). The number of non-kinase HTS assays where a compound showed > 50 % inhibition, expressed as a percentage of the number of such assays in which the compound was tested (-0 is zero); assay type: functional

Row | Structure (SMILES) | IFI [%]
1 | N#Cc1ccc(-c2ccc(C(=O)NCCCCN3CCC(c4ccc5c(c4OCc4ccncc4)CCCC5)CC3)cc2)cc1 | 5.41
2 | COc1cccc2c(C)cc(NCc3ccc(Cl)cc3)nc12 | 1.42
3 | O=C(Nc1ccc(-c2nc3ccccc3[nH]2)cc1)c1ccc(-c2cccc([N+](=O)[O-])c2)o1 | 4.23
4 | COc1c(CCNCCCCNCCc2cc(Cl)c3ccccc3c2OC)cc(Cl)c2ccccc12 | 19
5 | CN(C)c1ccc(-c2ccc(C(=O)NC3CCN(Cc4ccc(C(C)(C)C)cc4)CC3)s2)cc1 | 15.8
6 | O=C(Cc1ccccc1)NC(Nc1ccc([N+](=O)[O-])cc1)C(Cl)(Cl)Cl (centres undefined) | 6.99
7 | CCCCCCNC[C@@H](O)[C@H](Cc1ccccc1)NC(=O)c1cc(NCC)cc(N2CCCCS2(=O)=O)c1 | 3.73
8 | COc1ccc2nccc([C@@H](O)CN3CCC(NCc4ccc5c(c4)NC(=O)CO5)CC3)c2c1 | 1.5
9 | O=C(Nc1cccc(-c2ccc(-c3nc4cc(F)ccc4[nH]3)s2)c1)c1ccncc1 | 7.02
10 | Oc1ccc(CCNc2nc(NCCCOc3ccccc3-c3ccc(F)cc3)nc(N3CCNCC3)n2)cc1 | 13.8
11 | COc1cccc(CNC[C@@H](O)[C@H](Cc2ccccc2)NC(=O)c2cc(N3CCCC3=O)c3[nH]cc(C(C)C)c3c2)c1 | 2.86
12 | Cc1cnc(NCC2CCCCC2)nc1NCC(=O)Nc1ccccc1 | 8.7
13 | O=C(c1cccc(Br)c1)N1CCN(c2ccc([N+](=O)[O-])c(NC3CC3)c2)CC1 | 4.2
14 | O=S(=O)(c1c(Cl)cccc1Cl)N1CCCCC(c2ccc(C(F)(F)F)cc2)=N1 | 3.08
15 | CN1CCN(CCCN(Cc2cccc(-c3ccc(CNCc4ccc5c(c4)OCO5)cc3)c2)C(=O)CCC2CCCC2)CC1 | 7.97
16 | O=[N+]([O-])c1ccc(N2CCCN(C(=S)Nc3ccc(F)cc3Br)CC2)nc1 | 4.55
17 | CN(c1ccc(C(=O)N[C@@H](CCC(=O)O)C(=O)O)cc1)S(=O)(=O)c1ccc2nc(N)[nH]c(=O)c2c1 | 0.72
18 | CC(=O)Nc1ncc(C(=O)Nc2cccc(-c3cccc(-c4nc5cc(C(F)(F)F)ccc5[nH]4)c3)c2)s1 | 5.41
19 | CC(C)(C)c1ccc(S(=O)(=O)Nc2ccccc2N2CCOCC2)cc1 | -0
20 | COc1cccc(NC(=O)Nc2c(-c3cccc(C(F)(F)F)c3)c(C(F)(F)F)nn2C)c1 | -0
21 | COc1ccc(O)c(C(=O)c2cc(C(=O)NCCc3ccccc3)c(=O)n(CCc3ccccc3)c2)c1 | 2.38
22 | COc1ccccc1C(=O)Nc1ccc(Nc2nc(C)cc(N(C)C)n2)cc1 | 2.38
23 | CC(C)C[C@@H](/C=N/N1CCNC1=O)NC(=O)[C@H](CC(C)C)NC(=O)c1ccc(OCCN2CCOCC2)cc1 | 9.01

Row | Structure (SMILES) | IFI [%]
24 | COc1ccc(C=NN=c2cc(C)[nH]c3c(C)cccc23)c2ccccc12 | 2.84
25 | CCOC(=O)c1ccc(N2CCN(c3cc(C)ccc3C)CC2)c(NC(=O)Nc2ccc(Cl)c(Cl)c2)c1 | 1.48
26 | Cc1ccc(C)c(Sc2ccc(NC(=O)CN3CCN(C(=O)c4ccco4)CC3)cc2)c1 | 8.33
27 | Cc1cc2nc(-c3ccc(/C=C/C(=O)NC4CCCCC4)cc3)[nH]c2cc1C | 3.7
28 | O=C(Cn1c(CCc2cccc(F)c2F)cc(=O)c2cccnc21)N(CCN1CCCC1)Cc1ccc(-c2ccc(C(F)(F)F)cc2)cc1 | 13.3
29 | Cc1cc(Nc2cccc(C(F)(F)F)c2)nc(N)n1 | -0
30 | O=C(Nc1cccc(OC2CCN(Cc3ccc(F)cc3)CC2)c1)c1ccc(C(F)(F)F)cc1 | 10.5
31 | COc1ccc2nc(-c3ccccc3)cc(NCCCNc3cc(-c4ccccc4)nc4ccc(OC)cc34)c2c1 | 5.15
32 | O=C(Nc1ccc(F)c(Cl)c1)NC1CCN(c2ccnc3cc(Cl)ccc23)C1 (centres undefined) | 9.23
33 | CCn1c(-c2nonc2N)nc2c(-c3cccc(NC(=O)Nc4cccc(Cl)c4)c3)ncc(OCCCN)c21 | 17.6
34 | CN(CC(=O)Nc1ccc(F)c(F)c1F)c1ncnc2sc(-c3ccccc3)cc12 | 0.84
35 | CC1CCN(C(=O)[C@H](Cc2c[nH]c3ccccc23)NS(=O)(=O)c2ccc(Cl)cc2)CC1 | -0
36 | O=C(/C=C/c1ccc(Cl)c(Cl)c1)N1CCC(CN2CCC(c3c[nH]c4ccncc34)CC2)CC1 | 5.04
37 | Cc1nc(N/C=C/c2ccc(O)cc2)cc(N2CCCC2)n1 | -0
38 | Cn1nc(-c2ccc(NC(=O)Nc3ccc4ccccc4c3)c(F)c2)c2cnc(NCCN3CCOCC3)nc21 | 3.52
39 | Cc1cccc(NC(=O)c2cnc(N3CCN(c4ccncc4)CC3)c(Cl)c2)c1 | 7.14
40 | Cc1cc(CN2CC[C@H](NC(=O)c3ccc(Cl)c(Cl)c3)C2)ccc1OC1CCN(Cc2ccccc2)CC1 | 6.9
41 | Cc1cccc2nc(-c3ccc(-c4ccc(CN5CCC(C(N)=O)CC5)cc4)s3)[nH]c12 | 3.85
42 | CC(C)(C)c1ccc(CN2CCCCC(NC(=O)c3cc(-c4ccccc4Cl)cs3)C2)cc1 (centres undefined) | 1.82
43 | OC(CNCc1ccccc1OCc1ccccc1)c1cc(C(F)(F)F)cc(C(F)(F)F)c1 (centres undefined) | 5.98
44 | CS(=O)(=O)CCNCc1cccc(-c2ccc3c(Nc4ccc(Oc5ccccc5)cc4)ccnc3c2)c1 | 3.68
45 | CCC[C@@H]([C@@H](CC1CCCCC1)C(=O)N[C@H](C(=O)Nc1ccccn1)[C@H](C)CC)N(O)C=O | 2.92
46 | CC(C)c1ccc(NC(S)=NN=Cc2ccccn2)cc1 | 6.47

Row | Structure (SMILES) | IFI [%]
47 | CC(=O)c1ccc(NC(=O)Nc2ccc(N(C)c3ccnc(NC4CC4)n3)cc2)cc1 | 8.04
48 | CC(C)C[C@H](NC(=O)c1cc(-c2ccc(F)cc2)no1)C(=O)O.CC(C)C[C@H](NC(=O)c1conc1-c1ccc(F)cc1)C(=O)O | -0
49 | CC(C)c1ccc(S(=O)(=O)N(c2ccc3c(c2)OCO3)C2CCN(Cc3ccccc3)C2)cc1 (centres undefined) | 2.05
50 | N=C(N)NN=Cc1ccccc1OCc1ccccc1Cl | 6.72
51 | Cc1cc(NC(=O)c2sc3ccccc3c2O)no1 | 3.23
52 | c1ccc(-c2cc(NCc3cccc4ccccc34)c3[nH]ncc3n2)cc1 | 2.88
53 | O=C(Nc1ccc(-c2cccc(-c3nc4cc(F)ccc4[nH]3)c2)cc1)c1ccncc1 | 7.48
54 | O=[N+]([O-])c1cccc(CNCC2CCN(CCc3ccccc3)CC2)c1 | 1.44
55 | COc1ccc(CCN2CC[C@H](Nc3nc(-c4ccc(F)c(F)c4)nc4ccccc34)C2)cc1S(N)(=O)=O | 3.01
56 | Cc1cc(N2CCCC2)nc(Nc2ccc(NC(=O)c3cccc(F)c3)cc2)n1 | 10.3
57 | CCc1c(C)nc(-n2nc(C)cc2NC(=O)c2cccc3ccccc23)[nH]c1=O | 9.62
58 | COc1ccc(C(=O)Nc2cc(Br)c3c(c2)CNCC3)cc1Br | 4.38
59 | COc1ccc(CN(C)CCCc2ccc(NC(=O)Cc3ccc4nc(-c5ccccc5)ccc4c3)cc2)cc1OC | 3.36
60 | O=C(Nc1ccc(-c2nc3ccccc3[nH]2)cc1)c1ccc(Cl)s1 | -0
61 | CCc1ccc(CN2CCC(CNC(=O)c3cc(-c4ccccc4Cl)cs3)C2)cc1 (centres undefined) | 8.16
62 | Clc1ccc(Nc2nc3ccc(Cl)cc3nc2Nc2ccc(Cl)cc2)cc1 | 10.1
63 | COc1cc2c(cc1S(=O)(=O)c1ccc(COc3ccc(C(F)(F)F)cc3)cc1)CNCC2 | 14.3
64 | Cc1cccc2[nH]c(-c3cc(-c4cccc(Cl)c4)cnc3N)nc12 | 8.72
65 | Cc1cc(Nc2ccccc2)nc(Nc2ccccc2)n1 | 4.35
66 | c1cc(CN2CCN(c3ccncc3)CC2)cc(-c2cccc(-c3nc4ccccc4[nH]3)c2)c1 | 13.5
67 | Cc1cccc2nc(-c3ccc(-c4ccc(CN5CC(C)OC(C)C5)cc4)cc3)[nH]c12 (centres undefined) | 6.94
68 | Cc1ccccc1C1CCN(C2CCC(NC(=O)/C=C/c3cccc(Cl)c3)CC2)CC1 (centres undefined) | 16.4
69 | Cc1cc(N(C)CCCN(C)C)nc(Nc2ccc(Cl)cc2)n1 | 2.25

Row | Structure (SMILES) | IFI [%]
70 | N=c1c(C(=O)NCc2ccccc2)cc2c(=O)n3ccccc3nc2n1CCc1ccccc1 | 2.65
71 | CCOc1ccccc1CNc1nccc(NCc2ccc(Cl)cc2Cl)n1 | 16
72 | O=C(NC1CCCCC1)C1CCCN(C(=O)c2ccc(O)c(-c3ccc(Cl)c(Cl)c3)c2)C1 (centres undefined) | 2.92
73 | Clc1ccc(Cc2nc3ccccc3[nH]2)cc1Cl | 2.26
74 | CC(C)C1=C[C@H]2C[C@]3(C4OCCO4)[C@@H]4CC[C@@H](C)[C@H]4C[C@@]2(C(=O)OCC2COCO2)[C@]13C(=O)OC(c1ccccc1)c1ccccc1 (some centres undefined) | 1.55
75 | CN(C(=O)Nc1ccc(C(F)(F)F)cc1)C1CCN(CCCCCNC(=O)/C=C/c2ccc(Cl)c(Cl)c2)CC1 | 13.2
76 | CN1CCN(CC(=O)Nc2cccc(-c3cccc(-c4nc5cc(F)ccc5[nH]4)c3)c2)CC1 | 6.09
77 | O=C(NCc1cccc(CN2CCOCC2)c1)c1cc(Br)cc(N2CCN(c3ccncc3)CC2)c1 | 6.25
78 | Cc1cc(N(C)CCCN2CCCCC2)nc(Nc2ccc(Cl)cc2)n1 | 3.52
79 | Nc1nccc2ccc(Oc3ccncc3)cc12 | -0
80 | O=C(Nc1ccc(OC2CCN(Cc3ccc(F)cc3)C2)cc1)c1ccco1 (centres undefined) | -0
81 | CC(C)NCc1cc(Nc2ccnc3cc(Cl)ccc23)ccc1O | 3.57
82 | CC(C)c1ccc(NC(=O)c2ccc(C(=O)NC3CCN(Cc4ccccc4)CC3)cc2)cc1 | 4.27
83 | CN1CC[C@@H](Oc2cc(CNC(=O)c3ccc(-c4ccc(Cl)cc4)s3)ccc2C(F)(F)F)C1 | 8.26
84 | CN(C)c1ccc(C2(c3ccccc3)N=C(N)N(CCCc3ccccc3)C2=O)cc1 (centres undefined) | 6.67
85 | CC(C)CNC(=O)c1ccnc(-c2ccc(CNC3Cc4ccccc4C3)cc2)c1 | 3.03
86 | CN(C)S(=O)(=O)n1ncc2c3c(N)nc(N)nc3ccc21 | 1.54
87 | CCOc1ccccc1C(=O)N1CCc2cc3nccc(N4CCN5CCC[C@H]5C4)c3cc21 | 3.01
88 | Cc1noc(-c2cccs2)c1C(=O)NC(C)c1cccc2ccccc12 (centres undefined) | 2.44
89 | CCC(NC(=O)c1ccccc1NC(=O)c1ccc(C)cc1)C(=O)OC (centres undefined) | 0
